These results are taken from patent US20220204587A1.

Assay in all cases: cell-based or functional assay
Test [1] has as its target TGF-β1 (UniProt P01137).
The target of test [2] is T1, TGF-β2 (UniProt P61812).
T1 sequence (looked up): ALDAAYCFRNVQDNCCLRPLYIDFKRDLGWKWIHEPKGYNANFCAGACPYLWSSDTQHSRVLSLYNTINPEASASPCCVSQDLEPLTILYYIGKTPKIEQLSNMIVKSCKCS

Test [3] concerns the target TGF-β3 (UniProt P10600).
Sequence of UniProt P10600 (P10600 301-412 limits assumed): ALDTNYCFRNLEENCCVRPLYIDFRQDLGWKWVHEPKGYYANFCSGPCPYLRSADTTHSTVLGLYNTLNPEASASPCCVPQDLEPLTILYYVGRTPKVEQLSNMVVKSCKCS

Sequence of UniProt P01137 (P01137 279-390 limits assumed): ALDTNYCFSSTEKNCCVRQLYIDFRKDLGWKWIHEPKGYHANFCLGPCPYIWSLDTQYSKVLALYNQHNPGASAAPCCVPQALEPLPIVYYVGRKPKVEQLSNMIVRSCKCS

B1: T22d35-Fc-IgG1-v1 (CC) (Fc fusion)
chain: IPPHVQKSVNNDMIVTDNNGAVKFPQLCKFCDVRFSTCDNQKSCMSNCSITSICEKPQEVCVAVWRKNDENITLETVCHDPKLPYHDFILEDAASPKCIMKEKKKPGETFFMCSCSSDECNDNIIFSEEYNTSNPDIPPHVQKSVNNDMIVTDNNGAVKFPQLCKFCDVRFSTCDNQKSCMSNCSITSICEKPQEVCVAVWRKNDENITLETVCHDPKLPYHDFILEDAASPKCIMKEKKKPGETFFMCSCSSDECNDNIIFSEEYNTSN[human IgG1 Fc and a few adjoining residues cut from this listing]
Regarding B1, the IC50 (nM), neutralization of TGF-β1-induced IL-11 release by A549 cells in test [1] amounted to 0.00234 nM. For the same molecule, the IC50, neutralization of TGF-β-induced IL-11 release by A549 cells (FIG. 9) in test [1] turned out to be 3.33 pM; in test [2] it was 17300 pM; in test [3] it was 3.25 pM.

B2: T22d35-Fc-IgG1-v2 (SCC) (Fc fusion)
chain: IPPHVQKSVNNDMIVTDNNGAVKFPQLCKFCDVRFSTCDNQKSCMSNCSITSICEKPQEVCVAVWRKNDENITLETVCHDPKLPYHDFILEDAASPKCIMKEKKKPGETFFMCSCSSDECNDNIIFSEEYNTSNPDIPPHVQKSVNNDMIVTDNNGAVKFPQLCKFCDVRFSTCDNQKSCMSNCSITSICEKPQEVCVAVWRKNDENITLETVCHDPKLPYHDFILEDAASPKCIMKEKKKPGETFFMCSCSSDECNDNIIFSEEYNTSNPDV[human IgG1 Fc with changes cut from this listing]
In test [1], B2 displayed an IC50 (nM), neutralization of TGF-β1-induced IL-11 release by A549 cells of 0.00213 nM.

B3: T22d35-Fc-IgG1-v3 (GSL-CC) (Fc fusion)
chain: IPPHVQKSVNNDMIVTDNNGAVKFPQLCKFCDVRFSTCDNQKSCMSNCSITSICEKPQEVCVAVWRKNDENITLETVCHDPKLPYHDFILEDAASPKCIMKEKKKPGETFFMCSCSSDECNDNIIFSEEYNTSNPDIPPHVQKSVNNDMIVTDNNGAVKFPQLCKFCDVRFSTCDNQKSCMSNCSITSICEKPQEVCVAVWRKNDENITLETVCHDPKLPYHDFILEDAASPKCIMKEKKKPGETFFMCSCSSDECNDNIIFSEEYNTSNPDGGGSGGGSG[human IgG1 Fc and a few adjoining residues cut from this listing]
Consider B3, for which the IC50 (nM), neutralization of TGF-β1-induced IL-11 release by A549 cells in test [1] turned out to be 0.00248 nM.
